The record followed here is patent US20230383007A1 (BIOSION, published 2023).

For assay [1], the target named is T1, human TROP2-his protein (human, UniProt P09758 27-274).
T1 construct: also called biotin labeled human TROP2-his protein
T1 sequence: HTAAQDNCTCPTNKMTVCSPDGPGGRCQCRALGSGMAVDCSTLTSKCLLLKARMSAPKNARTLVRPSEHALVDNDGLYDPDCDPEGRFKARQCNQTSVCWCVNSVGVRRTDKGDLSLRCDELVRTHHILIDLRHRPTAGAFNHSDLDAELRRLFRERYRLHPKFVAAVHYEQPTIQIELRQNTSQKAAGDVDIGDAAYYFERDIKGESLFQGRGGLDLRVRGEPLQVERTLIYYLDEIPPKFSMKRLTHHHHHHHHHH
As to the kind of experiment: capture ELISA: antibody captured on anti-human IgG Fc coated plate, biotin labeled human TROP2-his detected with streptavidin-HRP; unit taken from the x axis (nM). The method, then:
For the capture ELISA, 96-well plates were coated with 100 μl 2 μg/ml AffiniPure F(ab′)₂ Fragment GoatAnti-Human IgG, Fey fragment specific (Jackson Immuno Research, Cat #109-006-008) in PBS overnight at 4° C. Plates were washed once with wash buffer (PBS+0.05% v/v Tween-20, PBST) and then blocked with 200 μl/well blocking buffer (5% w/v non-fatty milk in PBST) for 2 hours at 37° C. Plates were washed 4 times and respectively incubated with 100 μl serially diluted anti-TROP2 antibodies of the disclosure, the benchmark or negative control hIgG (human immunoglobulin (pH4) for intravenous injection, Hualan Biological Engineering Inc.) (5-fold dilution in 2.5% w/v non-fatty milk in PBST, starting at 66.7 nM) for 40 minutes at 37° C., and then washed 4 times again. […] The reaction was stopped in 3-10 minutes at room temperature with 50 μl/well 1M H₂SO₄, and the absorbance of each well was read on a microplate reader using dual wavelength mode with 450 nm for TMB and 630 nm as the reference wavelength. […] Data was analyzed using Graphpad Prism software and EC₅₀ values were reported.

Assay [2] has as its target T2, cynomolgus TROP2-his protein (cynomolgus, UniProt P09758 27-272 (human entry), limits assumed).
T2 construct: also called Cyno TROP2-his; Cynomolgus monkey TROP2-his protein
T2 chain: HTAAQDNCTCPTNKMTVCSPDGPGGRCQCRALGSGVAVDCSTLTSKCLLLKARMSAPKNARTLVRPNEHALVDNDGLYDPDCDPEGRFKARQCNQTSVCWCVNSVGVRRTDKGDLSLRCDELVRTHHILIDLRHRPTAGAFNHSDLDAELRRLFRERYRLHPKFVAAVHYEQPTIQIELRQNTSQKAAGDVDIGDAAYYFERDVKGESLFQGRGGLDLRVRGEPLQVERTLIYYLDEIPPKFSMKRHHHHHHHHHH
As to the kind of experiment: SPR Biacore; antibody captured on anti-human IgG chip, TROP2-his as analyte.

Assay [3] deals with T1, human TROP2-his protein. The assay is described as above.
Assay [4] addresses T2, cynomolgus TROP2-his protein. The experiment in a line: indirect ELISA on cynomolgus TROP2; unit taken from the x axis (nM).
Assay [5] concerns the target T3, full length human TROP2 on 293F-TROP2 cells (clone ID #3A8) (human, UniProt P09758 27-323).
T3 sequence: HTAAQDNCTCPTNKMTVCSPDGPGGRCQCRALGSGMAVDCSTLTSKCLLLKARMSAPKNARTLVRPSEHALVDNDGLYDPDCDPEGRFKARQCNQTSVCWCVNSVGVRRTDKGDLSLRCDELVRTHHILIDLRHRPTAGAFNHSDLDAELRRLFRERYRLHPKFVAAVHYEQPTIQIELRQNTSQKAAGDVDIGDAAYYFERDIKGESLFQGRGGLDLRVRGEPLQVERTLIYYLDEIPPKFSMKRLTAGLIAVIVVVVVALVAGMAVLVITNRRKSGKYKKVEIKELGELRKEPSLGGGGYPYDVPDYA
As to the kind of experiment: cell based binding FACS (MFI) on 293F-TROP2 cells expressing human TROP2; unit taken from the x axis (nM). The method, then: Cells were washed twice with FACS buffer, and added with 100 μL/well R-Phycoerythrin AffiniPure Goat Anti-Human IgG, Fey fragment specific (1:1000 dilution in FACS buffer, Jackson Immunoresearch, Cat #109-115-098). Following an incubation of 40 minutes at 4° C. in dark, cells were washed twice and re-suspended in FACS buffer. Fluorescence was measured using a Becton Dickinson FACS Canto II-HTS equipment, and the MFI (mean fluorescence intensity) was plotted against antibody concentration. Data was analyzed using Graphpad Prism software and EC₅₀ values were reported.

Assay [6] addresses T1, human TROP2-his protein. As to the kind of experiment: indirect ELISA on human TROP2; unit taken from the x axis (nM).
Assay [7] deals with T1, human TROP2-his protein. The experiment in a line: SPR Biacore T200; cell supernatant captured on anti-human IgG chip, 40 nM human TROP2-his as analyte. The source says:
(§1) The purified anti-TROP2 mouse monoclonal antibodies (mAbs) were characterized for binding affinity and binding kinetics by Biacore T200 system (GE healthcare, Pittsburgh, PA, USA). Briefly, goat anti-human IgG (GE healthcare, Cat #BR100839, Human Antibody Capture Kit) was covalently linked to a CM5 chip (carboxy methyl dextran coated chip from GE healthcare #BR100530) via primary amines, using a standard amine coupling kit (GE healthcare, Pittsburgh, PA, USA) provided by Biacore. Un-reacted moieties on the chip (biosensor) surface were blocked with ethanolamine. The anti-TROP2 antibodies of the disclosure and the benchmark at the concentration of 2 μg/ml were respectively flowed onto the chip at a flow rate of 10 μL/min. Then, serially diluted human TROP2-his protein (prepared in-house with SEQ ID NO: 16), or cynomolgus TROP2-his protein (prepared in-house with SEQ ID NO: 19), 2-fold dilution in HBS-EP⁺ buffer (provided by Biacore) starting at 160 nM, were flowed onto the chip at a flow rate of 30 μL/min. The antigen-antibody association kinetics was followed for 2 minutes and the dissociation kinetics was followed for 10 minutes. The association and dissociation curves were fit to a 1:1 Langmuir binding model using BIAcore evaluation software.
(§2) For the BIAcore test, cell supernatants containing humanized 01-9F-CDR-V11 antibodies were respectively flowed onto the chip at a flow rate of 10 μL/min, and 40 nM human TROP2-his protein (prepared in-house with SEQ ID NO: 16) in HBS-EP⁺ buffer (provided by Biacore) were flowed onto the chip at a flow rate of 30 μL/min.

Assay [8] addresses T1, human TROP2-his protein. As to the kind of experiment: competitive ELISA: antibody pre-mixed with biotin labeled human TROP2-his, added to plate coated with the benchmark (sacituzumab analog); unit taken from the x axis (nM).
The target in assay [9] is T1, human TROP2-his protein. The experiment in a line: SPR Biacore T200; antibody captured on anti-human IgG chip, 40 nM human TROP2-his as analyte.
From the text: as §1, §2

For assay [10], the target named is T1, human TROP2-his protein. The experiment in a line: SPR Biacore; cell supernatant captured on anti-human IgG chip, 40 nM human TROP2-his as analyte.
From the text: as §1
For the BIAcore test, cell supernatants containing the 01-9F-Fc variants were respectively flowed onto the chip instead of the purified anti-TROP2 antibodies, at a flow rate of 10 μL/min, and 40 nM human TROP2-his proteins (prepared in-house with SEQ ID NO: 16) in HBS-EP⁺ buffer (provided by Biacore), instead of serially diluted human TROP2-his proteins, were flowed onto the chip at a flow rate of 30 μL/min.

B1: 01-9F-CDR-V11-V11-Fc (Fc fusion)
heavy: EVQLVESGGGLVQPGGSLRLSCAASGLPYSRYCVAWFRQAPGKGLEGVARILSDATTSYSDTVKGRFTISKDNAKNSLYLQMNSLRAEDTAVYYCAAEAFRPFTPSDADCTTVLGIDYWGQGTTVTVSS[… human IgG1 Fc …]
notes: also called 01-9F-Fc-CDRV11-V11; 01-9F-Fc-CDRV 11-V11
On to B1, for which the EC50 in the assay with human TROP2-his protein [1] was 0.169 nM; in assay [4], 0.0901 nM; in assay [5], 0.387 nM; in the assay with human TROP2-his protein [6], 0.0959 nM. Moreover, the results for the Kd (in [2]; in the assay with human TROP2-his protein [3]; with human TROP2-his protein [7]) were 0.397 nM, 0.453 nM and 0.2 nM, respectively. The dissociation rate constant (koff) in [2] came to 0.00018 s⁻¹; with human TROP2-his protein [3], 0.000179 s⁻¹; in the assay with human TROP2-his protein [7], 0.000294 s⁻¹. Further, the results for the kon (in [2]; with human TROP2-his protein [3]; in the assay with human TROP2-his protein [7]) were 453000 M⁻¹ s⁻¹, 394000 M⁻¹ s⁻¹ and 1.47e+06 M⁻¹ s⁻¹, respectively. This molecule also came in with a half-maximal inhibitory concentration (IC50) in the assay with human TROP2-his protein [8] of 0.244 nM.

B2: 01-9F-CDR-V11-Fc (Fc fusion)
heavy: QVQLVESGGGSVQAGGSLRLSCVVSGLPYERYCVAWFRQGPGKEREGVARILSDATTSYSDTVKGRFTISKDNAKNTLYLQMNSLKSEDTATYYCAAEAFRPFTPSDADCTTVLGIDYWGKGTPVTVSS[… human IgG1 Fc …]
notes: also called 01-9F-CDR-Fc-V11
For the molecule B2, the EC50 in the assay with human TROP2-his protein [1] worked out at 0.15 nM; in assay [4], 0.113 nM; in assay [5], 0.473 nM; with human TROP2-his protein [6], 0.113 nM. For the same molecule, the dissociation constant Kd amounted to 0.3 nM in [2], 0.327 nM with human TROP2-his protein [3], 0.151 nM in the assay with human TROP2-his protein [9] and 0.172 nM in the assay with human TROP2-his protein [10]. Besides, the dissociation rate constant (koff) in assay [2] is 0.000124 s⁻¹; with human TROP2-his protein [3], 0.000127 s⁻¹; with human TROP2-his protein [9], 0.000223 s⁻¹; in the assay with human TROP2-his protein [10], 8.17e-05 s⁻¹. Also, the on-rate constant (kon) in [2] is 412000 M⁻¹ s⁻¹; in the assay with human TROP2-his protein [3], 389000 M⁻¹ s⁻¹; with human TROP2-his protein [9] it was 1.48e+06 M⁻¹ s⁻¹; in the assay with human TROP2-his protein [10], 475000 M⁻¹ s⁻¹. The molecule further showed an IC50 with human TROP2-his protein [8] of 0.198 nM.
